Laboratory results taken from PubChem BioAssay AID1745845 (National Center for Advancing Translational Sciences (NCATS), 2022).
About 2,600 (0.72%) of roughly 360,000 compounds were called active. This list was built around the results that the source calls inconclusive (neither active nor inactive); the mix of calls is not that of the screen. Calls follow the shape of the dose curve; as a rule, active = well fitted inhibition curve with a large enough effect; inconclusive = small, poorly fitted or top-dose-only effect; inactive = no such curve, though single readings can be large or run the other way. Potencies beside an inconclusive call are fits to weak or partial responses and may not hold up.

Assay: Primary qHTS for Inhibitors of ATXN expression; also: nearly all actives have a fitted effect of over 55% in size
Conditions: HEK-293 ATXN2-luciferase reporter, luminescence, 24 h; activity change, negative = inhibition: at 57 µM (top of the series)
Method in brief: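 qHTS (up to 57 uM final) was run with 24 h compound exposure of reporter cells at 37 °C. Each well was multiplexed: SteadyGlo luminescence measured ATXN2-luciferase expression after a fluorogenic Gly-Phe-AFC viability readout (25 uM final).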
% is scaled to controls: 0 for no effect and ±100 for the full control effect; potency is read from the fitted curve at half-maximal effect; tags tell the direction and shape of the fitted curve.

Activity change, negative = inhibition, inactive:
Cc1c(Br)cc(C(=O)OC2CCN(C)CC2)c(C)c1C -28%
CC(C(=O)NCc1cccc(Br)c1)n1ncn2cccc2c1=O (stereo unspecified) -6.25%
CCN(CC)C(=O)C1CCCN(C(=O)c2cc(COc3cccc(OC)c3)on2)C1 (stereo unspecified) 17.1%
Cc1cccc(N2CCN(C(=O)CN3C(=O)COc4ccc(S(=O)(=O)N5CCCC5)cc43)CC2)c1C 4.78%
CCC(=O)OC1=CN(Cc2ccccc2)S(=O)(=O)c2ccccc21 1.19%
O=c1cc(CN2CCN(C/C=C/c3ccccc3)CC2)c2cc(O)ccc2o1 -23.7%
Cc1[nH]n(-c2ccccc2)c(=O)c1/C=N/N(C)c1ccccc1 -17.1%
Cc1cc(C(=O)NNC(=O)CCCOc2ccccc2)c(C)o1 6.31%
CCCCCCn1c(-c2cccs2)n[nH]c1=S 0.217%
CCOc1ccc(NC(=O)CN(C)C(=O)C2CSC3(C)CCC(=O)N23)cc1OCC (stereo unspecified) 6.24%
Cc1cc(C)cc(C(=O)NC(CC(N)=O)c2ccc(N3CCC(Br)CC3)c([N+](=O)[O-])c2)c1 (stereo unspecified) -15.4%
CN(C)CCCN(C(=O)c1ccc(Br)s1)c1nc2cc3c(cc2s1)OCCO3 -9.37%
O=S(=O)(NCc1ccccn1)c1cc(C(F)(F)F)ccc1Cl 1.35%
COc1ccc(C(CNC(=O)c2oc3ccc(OC)cc3c2C)N2CCCC2)cc1 (stereo unspecified) -23.5%
CCOC(=O)c1c(C)oc2nc(C)nc(N3CCN(c4cccc(C)c4C)CC3)c12 -2.87%
Cc1csc(NC(=O)c2ccc(S(=O)(=O)N(C)c3ccccc3)cc2)n1 34.2%
COc1ccc(-c2cc(C(=O)O)c3ccccc3n2)c(OC)c1 -2.53%
CCCCCCn1c(=O)n2n(c1=O)[C@@H]1CN(S(=O)(=O)c3ccc(C)cc3)C[C@]1(O)[C@@H](OC(=O)NC1CC1)C2 5.48%
Cc1[nH]n(-c2ccccc2)c(=O)c1C(=O)c1ccc([N+](=O)[O-])cc1 -31.1%
CCOc1ccc(C2C(C(N)=O)=C(C)Nc3nc(-c4cccc(Cl)c4)nn32)cc1OC (stereo unspecified) 0%
NC1=NC(=Nc2ccc(Cl)cc2)c2ccccc21 -4.34% [at 11.3 µM]

Activity change, negative = inhibition, inconclusive:
CCOC(=O)CCc1c(C)nc(SCc2ccc(C(=O)O)cc2)c(C#N)c1C -50.3% [inhibitor]
COc1ccc2c(c1)CCCN2S(=O)(=O)c1ccc(Cl)cc1 -57.3% [inhibitor]

Potency, active:
CN(C)c1ccc2cc(C(=O)N[C@@H](CCCN=C(N)CCl)C(=O)NCc3ccccc3)ccc2c1 30.6 µM
COc1ccc(Oc2ccc(/C=C/C(=O)c3ccc(O)cc3)cc2[N+](=O)[O-])cc1 22.4 µM
CCCC(O)(CCC)C(=O)NN(C(=O)CCl)c1cccc(C)c1 21.2 µM
CCOC(=O)c1ccc(/C=C2/C=C(c3ccccc3)N(c3ccc(Cl)c(C(=O)O)c3)C2=O)cc1 10.6 µM

Potency, inconclusive:
Cc1cc2oc3ccc(NCCC4CCCN4C)cc3c(=O)c2cc1C (stereo unspecified) 28.2 µM [inhibitor, single point]
CC(=O)c1cccc(CN2CCC(C(=O)Nc3ccc(-c4cccc(C)c4)cc3)CC2)c1 17.8 µM [inhibitor, partial curve]
O=C(N[C@@H]1CCC(=O)N(CC[C@H](Sc2ccccc2)c2ccccc2)CC1)OCc1ccccc1 22.4 µM [inhibitor, partial curve, poor fit]
Cc1ccc(-c2cc(C(F)F)n3ncc(C(=O)Nc4c(C)nn(Cc5c(Cl)cccc5Cl)c4C)c3n2)cc1 20 µM [inhibitor, partial curve, poor fit]
C[C@H](CO)N1C[C@H](C)[C@@H](CN(C)S(=O)(=O)c2ccccc2)Oc2c(NC(=O)Nc3ccc(C(F)(F)F)cc3)cccc2C1=O 39.8 µM [inhibitor, single point]
CN(C(=O)CN1CCN(c2cc(-c3ccc(OCc4ccccc4)cc3)ncn2)CC1)c1ccccc1 25.1 µM [inhibitor, single point]
COc1cccc(-c2nc(N3CCN(C)CC3)c3ccccc3n2)c1O 31.6 µM [inhibitor, single point]
N#C/C(=C/c1ccc(N2CCCCCC2)o1)c1ccc(F)cc1 39.8 µM [inhibitor, single point]
O=C(NNC1=Nc2ccccc2SC1)c1ccccc1F 20 µM [inhibitor, partial curve, poor fit]
Cc1ccccc1-c1noc(-c2ccc(N3CCCC3)c([N+](=O)[O-])c2)n1 1.12 µM [inhibitor, partial curve, poor fit]
Cc1ccc(-n2c(SCc3ccccc3C)nc3[nH]ncc3c2=O)cc1C 31.6 µM [inhibitor, single point]
OC(CNc1ccccc1)COc1ccc(OCC(O)CNc2ccccc2)cc1 (stereo unspecified) 28.2 µM [inhibitor, single point]
Cc1cc(C)c2nc(NNC(=O)c3ccc(S(=O)(=O)N4CCc5ccccc5C4)cc3)sc2c1 37.7 µM [inhibitor, single point]
CCCCC/C=C\C[C@H](O)/C=C/c1cccc(C[C@H](O)CCCCO)n1 39.8 µM [inhibitor, partial curve, poor fit]
CC(C)N1CCC2(CC1)N=C(c1ccc3c(c1)OCO3)CC(c1cc(Cl)ccc1O)N2 (stereo unspecified) 39.8 µM [inhibitor, single point]
CCCCn1c(OC(=S)N(CC)CC)cc(C)nc1=S 31.6 µM [inhibitor, single point]
COc1ccc(C(=O)NCc2nnc(SCC(=O)Nc3ccc(F)cc3)n2-c2ccccc2)cc1 31.6 µM [inhibitor, partial curve, poor fit]
Cc1ccc(C(=O)OCn2ncc(Cl)c(Cl)c2=O)cc1 17.8 µM [inhibitor, single point]
Cc1ccc(O)c(NC(=O)CCSc2nc(-c3ccco3)cc(C(F)(F)F)n2)c1 39.8 µM [inhibitor, single point]
CCOc1ccc2nc(NCCNC(=S)NCCCN(C)C)c(C#N)cc2c1 17.8 µM [inhibitor, partial curve]
C#C[C@]1(OC(C)=O)CC[C@H]2[C@@H]3CCC4=C/C(=N/O)CC[C@@H]4[C@H]3CC[C@@]21CC 35.5 µM [inhibitor, partial curve]
CN(C)c1ccccc1CN1CCCN(Cc2ccccc2N(C)C)C1c1ccncc1 24.3 µM [inhibitor, partial curve]
O=c1c2ccccc2cnn1CCOc1ccccc1 10 µM [inhibitor, partial curve, poor fit]
O=C(c1ccc(Cl)c(Cl)c1)N1CCC(=O)N(C(COCc2cccc(C(F)(F)F)c2)Cc2ccccc2)CC1 (stereo unspecified) 39.8 µM [inhibitor, single point]
Cc1ccc(S(=O)(=O)N2CCn3cccc3C2C)cc1 (stereo unspecified) 25.1 µM [inhibitor, partial curve, poor fit]
Clc1ccc(CN2C3=NCCN3c3ccccc32)cc1Cl 28.2 µM [inhibitor, partial curve]
CCSc1nc(-c2ccccc2)nc(C(Cl)Cl)n1 10 µM [inhibitor, partial curve]
CCCCNC(=O)C1(C)CCN1Cc1cccc2c(OC)cc(C(=O)OCC)cc12 (stereo unspecified) 28.2 µM [inhibitor, single point]
Cc1cc(Nc2cccc(C(F)(F)F)c2)nc2ccc(NC(=O)c3cccnc3)cc12 3.55 µM [inhibitor, partial curve, poor fit]
COc1ccc(CNC(=O)CN2C(=O)NC(C)(c3ccc(C(C)(C)C)cc3)C2=O)cc1 (stereo unspecified) 29.9 µM [inhibitor, partial curve, poor fit]
O=C(CCCC1=NS(=O)(=O)c2ccccc2N1)N1CCN(c2ccc(Cl)cc2)CC1 22.4 µM [inhibitor, partial curve, poor fit]
O=C(COc1cccc(NC(=O)c2cccc([N+](=O)[O-])c2)c1)c1ccc(Br)cc1 39.8 µM [inhibitor, single point]
CC[C@@H]([C@H](C)O)n1ncn(-c2ccc(N3CCN(c4ccc(OCC5CO[C@@](Cn6cncn6)(c6ccc(F)cc6F)C5)cc4)CC3)cc2)c1=O (stereo partly specified) 24.3 µM [inhibitor, partial curve]
CCOC(=O)N1CCC(n2c(=S)[nH]c3cc(OCC)c(OCC)cc3c2=O)CC1 15.8 µM [inhibitor, partial curve]
Cc1ccc(OCC(O)Cn2c(=N)n(Cc3ccccc3)c3ccccc32)cc1 (stereo unspecified) 39.8 µM [inhibitor, single point]
COc1cccc(C(=O)CSc2nnc(-c3cc(OC)cc(OC)c3)o2)c1 39.8 µM [inhibitor, single point]
O=S(=O)(c1ccccc1)N(CC(O)COc1ccccc1)c1ccccc1 (stereo unspecified) 17.8 µM [inhibitor, partial curve]
CC(C)Cn1c(=O)c(C(=O)Nc2ccncc2)c(O)c2ccccc21 4.47 µM [inhibitor, full curve]
CC(C)(C)CC(C)(C)N=C1NS(=O)(=O)c2cc([N+](=O)[O-])ccc21 0.0095 µM [inhibitor, full curve, poor fit]
